# Measured values: the supplement of paper PMC3334620
# Over roughly 33,000 sequences, “E-score (-0.5 to 0.5)” has its median near -0.043; the highest 2% begin near 0.37. This is one part of the list.
# Target: T1, Upc2 (UniProt Q12151)
# T1 sequence: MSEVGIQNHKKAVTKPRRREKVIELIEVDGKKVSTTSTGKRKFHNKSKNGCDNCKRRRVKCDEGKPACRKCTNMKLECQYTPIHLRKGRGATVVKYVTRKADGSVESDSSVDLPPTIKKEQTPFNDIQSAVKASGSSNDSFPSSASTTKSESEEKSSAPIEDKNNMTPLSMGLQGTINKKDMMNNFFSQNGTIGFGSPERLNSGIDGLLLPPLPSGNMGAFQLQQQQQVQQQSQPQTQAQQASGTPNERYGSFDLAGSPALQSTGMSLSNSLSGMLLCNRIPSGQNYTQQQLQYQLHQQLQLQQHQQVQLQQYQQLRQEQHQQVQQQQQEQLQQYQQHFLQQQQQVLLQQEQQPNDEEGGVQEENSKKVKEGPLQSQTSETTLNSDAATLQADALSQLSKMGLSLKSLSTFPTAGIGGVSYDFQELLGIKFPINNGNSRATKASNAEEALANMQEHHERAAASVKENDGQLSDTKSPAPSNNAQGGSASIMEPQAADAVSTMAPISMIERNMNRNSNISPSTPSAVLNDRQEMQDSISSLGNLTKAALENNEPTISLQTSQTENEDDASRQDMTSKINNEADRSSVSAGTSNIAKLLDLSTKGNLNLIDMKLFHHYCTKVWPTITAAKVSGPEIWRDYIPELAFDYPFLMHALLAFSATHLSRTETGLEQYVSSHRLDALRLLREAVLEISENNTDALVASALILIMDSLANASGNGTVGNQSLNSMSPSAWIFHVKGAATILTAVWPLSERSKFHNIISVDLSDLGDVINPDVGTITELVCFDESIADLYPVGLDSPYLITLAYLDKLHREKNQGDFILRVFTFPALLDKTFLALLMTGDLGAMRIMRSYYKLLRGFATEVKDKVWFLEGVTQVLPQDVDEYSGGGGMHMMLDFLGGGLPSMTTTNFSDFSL
# Assay: PBM E-score (8-mer binding enrichment) (E-score (-0.5 to 0.5)); higher = stronger / more preferred TF binding; most listed sequences are background and not binding sites
# Settings: protein concentration: 200 nM; construct: GST-full length
# Experimental: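 Universal 'all 10-mer' protein binding microarrays (Agilent AMADID 015681) probed with GST-tagged S. cerevisiae TFs (full-length or DBD) made by in vitro transcription/translation (PURExpress), about 100-200 nM. Bound TF was detected with fluorescent anti-GST. Each ungapped 8-mer (which stands for itself and its reverse complement) is scored by the PBM enrichment score (E-score), a modified Wilcoxon-Mann-Whitney statistic from -0.5 to +0.5, computed with the Universal PBM Analysis Suite. Scale: above 0.35 generally sequence-specific binding.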
row,Sequence,PBM E-score
1,AGTTGCAG,-0.199
2,GTTAGTAA,0.1
3,AAGACTTG,-0.00965
4,AGTGGTGA,-0.163
5,AGCCATAG,-0.124
6,ACAAAACA,0.00904
7,CCGGACGC,0.0445
8,CCTTTACC,-0.191
9,CGATTGCG,-0.0045
10,ACTTGATA,-0.0769
11,CTGCGCCC,-0.274
12,AATGCTAG,-0.178
13,ATGTGGCA,-0.161
14,AGTTCGCC,-0.0959
15,CGGACGGC,-0.123
16,AAGCGATA,0.205
17,AAGTAATG,-0.0743
18,GTCAATAA,0.0324
19,TATGATGA,-0.0393
20,ACCTTATG,-0.189
21,CGCTACAA,0.0263
22,CGGAGATC,-0.111
23,CAACTCTA,-0.285
24,GACCCGTA,0.318
25,CTGAGTGC,-0.172

row,Sequence,PBM E-score
1,CTACTAAA,0.00659
2,CTTGGTTA,-0.084
3,GCGGGCGA,-0.0924
4,AAGTTTTG,-0.0401
5,CGAAACGA,0.447
6,CAGTCGGA,-0.016
7,AGATCTAC,0.0981
8,ATAGATGC,0.0325
9,GTAAAGCA,0.223
10,ATAAATAC,0.198
11,CCGGGCCA,-0.305
12,CCGCCTAA,0.034
13,GCTGCCGA,-0.0539
14,GTACTCTA,-0.0205
15,ACAACGCT,-0.0148
16,AGTAGGTA,-0.0576
17,CTTTCGCC,-0.118
18,GAACACTC,0.217
19,GATCGAAA,0.153
20,GAAGATTC,-0.0218
21,AAGAGTTC,0.0025
22,GAAAGTTC,-0.0894
23,ATAAGGTA,-0.0315
24,TCCTTCGA,-0.089
25,AGCTTGGA,-0.139

row,Sequence,PBM E-score
1,ACAGGTCC,-0.175
2,AATATCAA,-0.0756
3,CGGTAGAC,0.105
4,AATTGCGA,0.0229
5,AACGTCCT,0.137
6,AGACAAGA,-0.0842
7,TAACACAA,0.0323
8,GAATGTAC,0.0753
9,CCCCATTA,-0.164
10,ATTTACAC,-0.0758
11,CCGGCCAG,-0.188
12,AGATCTTC,-0.0969
13,GATAGAAC,0.0666
14,ATTGCTGA,-0.0921
15,ATCCGGAC,-0.132
16,CTGTAATA,0.0367
17,ATAAAAAT,-0.05
18,CCCGGGGA,-0.25
19,CTCGAGCC,0.135
20,AAGAACGC,0.0594
21,ATTGGTTG,-0.209
22,ATACTAGC,0.0623
23,GATGACTA,-0.0763
24,CAATGTAC,0.107
25,GGATCAAC,-0.104

row,Sequence,PBM E-score
1,GATTTCCC,0.039
2,CGGCTAAC,0.035
3,ATTAGGAA,-0.00917
4,AACGTTAA,0.264
5,AGCGGACT,-0.201
6,ACCTTGTA,0.0207
7,CACGAAAA,0.134
8,GATCCCTA,-0.041
9,GTCGGTGA,-0.0693
10,AGGCCTAA,-0.137
11,AACTCCCA,-0.11
12,ACACCTTG,-0.141
13,CCCCTGTC,-0.278
14,CCGTTTTC,0.00941
15,ATAATATG,0.0376
16,CGCTATCA,0.0106
17,GGATCGAA,0.211
18,CAACCGTA,0.295
19,AAATAGCG,0.0353
20,GACGCACC,-0.113
21,CAAAACTA,-0.0561
22,AAGCTGCC,-0.233
23,AATCCTCA,-0.216
24,AGGATCCA,-0.122
25,AAGCTCAT,-0.139

row,Sequence,PBM E-score
1,CCTCACCC,-0.0906
2,GCTCTCAC,-0.32
3,GCAAATCA,0.0183
4,ATATCGTC,0.0922
5,AACCTCTT,0.0154
6,AACGCTAC,0.105
7,ACGCTGCA,-0.0192
8,CCGAGAAC,0.117
9,AGGTCCGG,-0.129
10,ACAGAACG,0.265
11,AAGTCCGC,-0.0344
12,CTCCGCTA,-0.157
13,GCTACCGA,0.0302
14,CGCCTGCC,-0.133
15,TCTCCACA,-0.204
16,CACTGCGG,-0.111
17,CAGAGGCC,-0.111
18,AACAATGC,-0.0237
19,AAGGACCC,-0.195
20,AAGACCCT,-0.239
21,GAAAATCC,0.122
22,ACGAGATA,0.355
23,GTATGGAC,0.0685
24,GCGCACGA,-0.0283
25,GGATATCA,-0.0438

row,Sequence,PBM E-score
1,CCGTCGTA,0.457
2,CCTTAGAG,-0.235
3,CCTATTCA,-0.242
4,AACTCCCC,-0.0372
5,TCTACTCA,-0.238
6,CCGTAATC,0.039
7,CACTTGGC,-0.167
8,TTATAAAA,0.041
9,GAACTGTC,0.06
10,ACTCGCAG,-0.0889
11,AGGCGATG,-0.204
12,CGAACTCG,0.196
13,CCTCAGCA,-0.21
14,GAGAGGAC,-0.242
15,CGTGGTTC,-0.0882
16,CACCCGTG,-0.121
17,AATTCCCC,-0.257
18,CTTTAGAC,-0.0638
19,GTCTATTA,-0.0335
20,ACTGCCCC,-0.189
21,AAGTTCGC,0.141
22,TCAGTAGA,-0.141
23,AAGTACAT,-0.00422
24,GGAATGAA,0.0692
25,TCCTGTCA,0.102

row,Sequence,PBM E-score
1,CTAGGAAG,-0.409
2,GCTCAATA,-0.0432
3,CCAGATAC,0.125
4,CAGAATAA,-0.0364
5,AGGCCTAG,-0.168
6,AGTTCAAA,-0.124
7,AACCCTAT,0.0268
8,GCATTATA,-0.0395
9,ATAAATAG,-0.0685
10,CTGCAGAC,-0.0383
11,GCTCGGCA,-0.0335
12,CTGAGTAC,-0.0738
13,CCGGCATA,-0.0171
14,CGTCTAAA,0.148
15,GGTGCGAC,0.0784
16,CAATCTAC,-0.131
17,CGAACAAG,0.142
18,ATTAGAGA,-0.00567
19,GCATGATA,-0.0914
20,CCAGTCAG,-0.284
21,ACCACTAA,0.154
22,ACGACAAT,0.341
